{"source": "the BET-seq Pho4 binding data (Le et al. 2018)", "note": "This is one part of the list. The energies were worked out here from pooled read counts, against the library average; single values are noisy.", "data": [{"biological_target": "T1, Pho4 (S. cerevisiae) (UniProt P07270)", "T1 sequence": "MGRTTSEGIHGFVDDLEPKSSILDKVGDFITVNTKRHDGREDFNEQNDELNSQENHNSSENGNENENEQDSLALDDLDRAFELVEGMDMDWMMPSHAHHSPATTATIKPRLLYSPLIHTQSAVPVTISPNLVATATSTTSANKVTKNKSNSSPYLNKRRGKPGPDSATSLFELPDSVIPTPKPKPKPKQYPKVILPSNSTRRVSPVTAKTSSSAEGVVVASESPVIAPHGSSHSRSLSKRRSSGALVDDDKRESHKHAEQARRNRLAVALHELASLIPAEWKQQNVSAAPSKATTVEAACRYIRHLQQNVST", "experiment": "relative binding free energy (BET-seq); higher = weaker binding", "settings": "reference: library average", "units": {"relative binding free energy": "kJ/mol"}, "values": [{"sequence": "GGTAGCACGTGTGGAC", "relative binding free energy": 0.167}, {"sequence": "CGGTTCACGTGGTCGA", "relative binding free energy": 1.09}, {"sequence": "GTCAGCACGTGTTGAG", "relative binding free energy": 0.126}, {"sequence": "GGTGGCACGTGAGGCA", "relative binding free energy": 0.669}, {"sequence": "AGTTACACGTGTTAGA", "relative binding free energy": 0.502}, {"sequence": "GTTGGCACGTGTGGTA", "relative binding free energy": 0.126}, {"sequence": "GGGAGCACGTGGAAGG", "relative binding free energy": 0.251}, {"sequence": "TGTGACACGTGCGGGC", "relative binding free energy": -0.126}, {"sequence": "AAAATCACGTGGATGG", "relative binding free energy": 0.795}, {"sequence": "TGATGCACGTGGTTTC", "relative binding free energy": -0.293}, {"sequence": "CATGGCACGTGGTAAT", "relative binding free energy": -0.795}, {"sequence": "AATATCACGTGAAGTG", "relative binding free energy": 1.21}, {"sequence": "TTGTTCACGTGGTCCA", "relative binding free energy": 0.669}, {"sequence": "AGTTCCACGTGATGAG", "relative binding free energy": 0.92}, {"sequence": "GGGTGCACGTGTGCAT", "relative binding free energy": -0.0837}, {"sequence": "GTCACCACGTGAGGGT", "relative binding free energy": 0.92}, {"sequence": "TAAGTCACGTGTGTGA", "relative binding free energy": 0.711}, {"sequence": "AGCAGCACGTGTGATG", "relative binding free energy": -0.126}, {"sequence": "ATTTTCACGTGCAGAT", "relative binding free energy": 1.34}, {"sequence": "AGTATCACGTGCGGGC", "relative binding free energy": 0.377}, {"sequence": "TTTGTCACGTGGGAGA", "relative binding free energy": -0.335}, {"sequence": "GCTGTCACGTGTGGTC", "relative binding free energy": 0.251}, {"sequence": "GTGTCCACGTGGTCTT", "relative binding free energy": 0.335}, {"sequence": "GTGCTCACGTGTGTGC", "relative binding free energy": 1.09}, {"sequence": "GGTGGCACGTGCATGT", "relative binding free energy": -0.795}, {"sequence": "GTGACCACGTGGTAGG", "relative binding free energy": -0.335}, {"sequence": "TTATCCACGTGTGGCT", "relative binding free energy": 0.251}, {"sequence": "TAAATCACGTGTTGGG", "relative binding free energy": 1.26}, {"sequence": "GGGGTCACGTGGTATA", "relative binding free energy": 0.837}, {"sequence": "ATTATCACGTGTTTCG", "relative binding free energy": 0.586}, {"sequence": "TGTCTCACGTGTGGTA", "relative binding free energy": 0.837}, {"sequence": "TGGGGCACGTGGTCGC", "relative binding free energy": -1.26}, {"sequence": "AGTGGCACGTGGTTGC", "relative binding free energy": -0.586}, {"sequence": "GCGTGCACGTGTGCGA", "relative binding free energy": -0.0418}, {"sequence": "ATGTTCACGTGAGCTA", "relative binding free energy": 2.05}, {"sequence": "CTTGACACGTGATTGT", "relative binding free energy": 0.209}, {"sequence": "TGATTCACGTGCATAT", "relative binding free energy": 0.879}, {"sequence": "CGGGTCACGTGAGGTG", "relative binding free energy": 1.13}, {"sequence": "TACGTCACGTGGTTTT", "relative binding free energy": 0.335}, {"sequence": "GGGGGCACGTGGTAAG", "relative binding free energy": -0.335}, {"sequence": "ATGTTCACGTGTCGTG", "relative binding free energy": 1}, {"sequence": "AAGTGCACGTGGCTGT", "relative binding free energy": -0.502}, {"sequence": "TGGTACACGTGGTACT", "relative binding free energy": -0.251}, {"sequence": "CGTGGCACGTGAGTAA", "relative binding free energy": 0.418}, {"sequence": "TTGGTCACGTGAATAC", "relative binding free energy": 1.3}, {"sequence": "AGGTGCACGTGTTGTC", "relative binding free energy": 0.377}, {"sequence": "GTAAGCACGTGTGGCA", "relative binding free energy": -0.293}, {"sequence": "GACTGCACGTGGGAGG", "relative binding free energy": 0.46}, {"sequence": "TTTCTCACGTGCATGT", "relative binding free energy": 1.21}, {"sequence": "TTGGTCACGTGCAGGC", "relative binding free energy": -0.0418}, {"sequence": "GGGAACACGTGGTGTC", "relative binding free energy": -0.0837}, {"sequence": "GGGGACACGTGGCGCG", "relative binding free energy": -0.0418}, {"sequence": "GAGAACACGTGGTGGG", "relative binding free energy": 0.251}, {"sequence": "ATAGGCACGTGGGTAG", "relative binding free energy": -0.92}, {"sequence": "GTGGTCACGTGCAGGG", "relative binding free energy": 0.209}, {"sequence": "GCATGCACGTGGGATG", "relative binding free energy": -0.126}, {"sequence": "TTTTACACGTGCTCGT", "relative binding free energy": -0.0837}, {"sequence": "AGAGACACGTGTTGGG", "relative binding free energy": -0.0418}]}]}
